Test results from PubChem BioAssay AID686979 (National Center for Advancing Translational Sciences (NCATS), 2013).
Hit rate of the full screen: of about 420,000 compounds, about 50,000 (12%) were called active. The inconclusive results got no clear call from the source; some entries with a clear call stand among them for comparison. The call rests on the fitted dose curve; in most records, active means well fitted inhibition curve with a large enough effect; inconclusive means small, poorly fitted or top-dose-only effect; inactive means flat fitted curve, though single readings scatter. No potency is given beside an inconclusive call; the fits are too rough.

Experiment: qHTS for Inhibitors of human tyrosyl-DNA phosphodiesterase 1 (TDP1): qHTS in cells in presence of CPT; further: nearly all actives have a fitted effect of over 55% in size
Settings: chicken DT40 Tdp1-/-;hTDP1 cells + 20 nM CPT, ATP luminescence, 48 h; activity change, negative = growth inhibition: at 46.2 µM (top of the series) unless noted
Outline: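 Chicken DT40 Tdp1-/- cells complemented with human TDP1, 400 cells/well, exposed to compounds plus 20 nM camptothecin for at least 48 h at 37 C; viability read as ATP content by CellTiter-Glo luminescence.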
On the % scale 0 is the no-effect control and ±100 the full control effect; potency means the concentration at half of the fitted maximal effect; tags describe the fitted curve by direction and shape.

For `C/C(Cl)=C\Cn1c(O)c(N=NC(N)=S)c2cc(Br)ccc21`, which Potency is on record?
Its Potency is active: 1.3 µM.

Which Potency does the source give for `O=C1c2ccccc2C(Nc2ccc(F)c(Cl)c2)N1c1ccccn1` (stereo not given) here?
Its Potency is active: 16.4 µM.

With `CCn1c(SCCOc2ccc(Cl)cc2)nnc1-c1cccs1` as the compound, how does the Potency read?
The Potency was inconclusive [inhibitor, single point].

For `Cc1sc2ncnc(N3CCC(C(=O)Nc4nnc(CC(C)C)s4)CC3)c2c1C`, which Potency is on record?
The Potency was inconclusive [inhibitor, single point].

With `Nc1c(C(=O)NCc2ccc(Cl)cc2Cl)nnn1Cc1ccc(Br)cc1` as the compound, how does the Potency read?
The Potency was inconclusive [inhibitor, single point].

Which activity change, negative = growth inhibition does the source give for `CC(C)(C)NC(=O)C(c1ccco1)N(Cc1ccc2c(c1)OCO2)C(=O)Cn1nnc2ccccc21` (stereo not given) here?
The activity change, negative = growth inhibition was inconclusive: -34.6% [inhibitor].

Which Potency does the source give for `CCN(CC(=O)Nc1ccc(OC)cc1)C(=O)c1ccc(N2CCCC2=O)cc1` here?
The Potency was “inactive”.

Which Potency does the source give for `Cc1ccc2nc(NS(C)(=O)=O)sc2c1` here?
The Potency was inconclusive [inhibitor, single point].

With `Cc1cccc(N=Nc2c(C)nn(-c3ccccc3)c2N)c1C` as the compound, how does the Potency read?
The Potency was inconclusive [inhibitor, single point].

With `CC(C)CCNC(=O)NC(=O)COC(=O)c1cc(S(=O)(=O)N2CCOCC2)ccc1N1CCCCC1` as the compound, how does the Potency read?
The Potency was inconclusive [inhibitor, single point].

For `CCCN(C(=O)c1cccc(S(=O)(=O)N2CCCc3ccccc32)c1)C1CCS(=O)(=O)C1` (stereo not given), which Potency is on record?
The Potency was inconclusive [inhibitor, single point].

Which Potency does the source give for `CCCCCCn1c(=O)n2n(c1=O)C[C@]1(OC(=O)NCc3ccccc3)CN(S(=O)(=O)c3ccc(C)cc3)C[C@]1(O)C2` here?
The Potency was inconclusive [inhibitor, single point].

With `c1ccc(-c2nnc(OCCN3CCOCC3)c3ccccc23)cc1` as the compound, how does the activity change, negative = growth inhibition read?
The activity change, negative = growth inhibition was inconclusive: -30.3% [inhibitor].

For `N#CC(=NCc1cccnc1)C1=C(O)c2ccccc2C1=O`, which Potency is on record?
Its Potency is “inactive”.

With `COC(=O)CCNCCSc1nnc(-c2ccco2)n1Cc1ccccc1` as the compound, how does the Potency read?
Its Potency is active: 11.6 µM.

With `CCc1ccc(CNC(=O)c2cc3cc(S(=O)(=O)N4CCCCC4)ccc3n2C)cc1` as the compound, how does the Potency read?
Its Potency is inconclusive [inhibitor, partial curve].

For `CN1CC(c2ccccc2)C(c2ccc(Cl)cc2)=N1` (stereo not given), which Potency is on record?
The Potency was inconclusive [inhibitor, single point].

With `Cc1ccc(NC(=O)CSc2nc3ccccc3c3nc4ccccc4n23)cc1` as the compound, how does the Potency read?
The Potency was active: 0.651 µM.

Which Potency does the source give for `CCOC(=O)c1c(S(=O)(=O)NCCc2ccc(OC)c(OC)c2)c(C)n(C)c1C` here?
Its Potency is “inactive”.

Which Potency does the source give for `C[C@@]12CCC3c4ccc(O)cc4CCC3C1CCC2O` (stereo not given in full) here?
The Potency was inconclusive [inhibitor, single point].

For `COc1ccc2oc(C(=O)NCCc3ccccc3)c(C)c2c1`, which Potency is on record?
The Potency was “inactive”.

For `Cc1cc(=O)oc2cc(OC(C)C(=O)NCCc3ccc(S(N)(=O)=O)cc3)ccc12` (stereo not given), which Potency is on record?
Its Potency is “inactive”.

Which Potency does the source give for `COc1ccc(C(=O)N2CC3(C)CC2CC(C)(C)C3)cc1OC` (stereo not given) here?
The Potency was inconclusive [inhibitor, partial curve, poor fit].

Which Potency does the source give for `Cc1cc(=O)n(CC(=O)NC2CC2)c2c1c(C)nn2-c1ccccc1` here?
Its Potency is inconclusive [inhibitor, partial curve].

With `C=CCNc1ncnc2c1ncn2[C@H]1CN(CCc2ccccc2)C[C@@H](CO)O1` as the compound, how does the Potency read?
Its Potency is inconclusive [inhibitor, single point].

With `COc1ccc(-c2cc(=O)oc3cc(OC(C)C(=O)NCc4ccccn4)ccc23)cc1` (stereo not given) as the compound, how does the Potency read?
Its Potency is active: 20.6 µM.

With `O=C(Nc1ccc(F)cc1F)C(Cc1ccccc1)N1Cc2ccccc2C1=O` (stereo not given) as the compound, how does the Potency read?
The Potency was inconclusive [inhibitor, single point].

For `COc1cccc(-n2c(-c3ccc(Cl)cc3)cc3c2CC(C)(C)CC3=O)c1`, which Potency is on record?
The Potency was inconclusive [inhibitor, single point].

For `CC1=CC(C)(C)NC(=S)N1c1cccc2ccccc12`, which Potency is on record?
The Potency was inconclusive [inhibitor, single point].

For `CSc1ccccc1C(=O)N1CCN(c2cccc(Cl)c2)CC1`, which Potency is on record?
The Potency was inconclusive [inhibitor, partial curve].

For `COc1cc2c(=O)n(Cc3ccccc3Cl)c(=O)n(CC(=O)Nc3ccccc3)c2cc1OC`, which Potency is on record?
Its Potency is inconclusive [inhibitor, partial curve].

Which Potency does the source give for `Cc1cc2cc(CN(Cc3ccc4c(c3)OCO4)C(=O)c3cnccn3)c3nnnn3c2cc1C` here?
Its Potency is inconclusive [inhibitor, single point].

Which Potency does the source give for `CC(C)N1CCC(=NNc2ccc(S(=O)(=O)N3CCOCC3)cc2[N+](=O)[O-])CC1` here?
Its Potency is “inactive”.

Which Potency does the source give for `C=CCOc1c(Br)cc(CNn2nnnc2N)cc1OC` here?
The Potency was “inactive”.

For `O=C(CCC(=O)N1CC2CCCN2c2ccccc21)NCc1cccc(Cl)c1` (stereo not given), which Potency is on record?
Its Potency is active: 14.6 µM.

For `COc1ccc(-n2c(=O)c(-c3cn(C)c4ccccc34)nc3cnc(N4CCNCC4)nc32)cc1`, which Potency is on record?
The Potency was inconclusive [inhibitor, single point].

Which Potency does the source give for `CC(C)NC(=O)Cn1cc(C(=O)COc2ccccc2)c2ccccc21` here?
Its Potency is “inactive”.

Which Potency does the source give for `COc1ccc2c(c1)CCCN2C(N)=Nc1ccc(Cl)cc1` here?
The Potency was inconclusive [inhibitor, single point].

Which Potency does the source give for `CCOc1ccc(NS(=O)(=O)c2cccc(C(=O)N(C)Cc3ccco3)c2)cc1` here?
The Potency was inconclusive [inhibitor, single point].

Which Potency does the source give for `O=c1[nH]c(Cc2ccccc2)nc2c1oc1ccccc12` here?
Its Potency is active: 6.51 µM.

For `C/C(=C\C(=O)c1cccnc1)Nc1ccc(O)cc1`, which Potency is on record?
The Potency was “inactive”.

Which Potency does the source give for `Cc1ccc(S(=O)(=O)NCCC(=O)N2CCN(Cc3ccccc3)CC2)cc1` here?
The Potency was “inactive”.

With `CN(CCc1ccccn1)S(=O)(=O)c1ccc2c3c(cccc13)C(=O)N2` as the compound, how does the Potency read?
Its Potency is inconclusive [inhibitor, single point].

For `O=C1OC[C@H](Cc2ccc3c(c2)OCO3)/C1=C\c1ccc2c(c1)OCO2`, which Potency is on record?
The Potency was active: 5.8 µM.

Which Potency does the source give for `CCc1cc(C(=O)N2CCc3c([nH]c4ccccc34)C2c2ccc(OC)cc2F)no1` (stereo not given) here?
The Potency was inconclusive [inhibitor, single point].

Which Potency does the source give for `CCCC1=[N+](CC(=O)c2ccc(C)cc2)CCn2cccc21` here?
The Potency was inconclusive [inhibitor, single point].

With `CC(C)(C)C(=O)Nc1ccccc1C(=O)NCCCn1ccnc1` as the compound, how does the Potency read?
The Potency was “inactive”.

For `C[C@H](CO)N1C[C@H](C)[C@H](CN(C)Cc2ccncc2)Oc2ccc(NC(=O)Nc3ccc(C(F)(F)F)cc3)cc2CC1=O`, which Potency is on record?
Its Potency is active: 3.26 µM.

With `Cc1ccc(C)c(N(CC(=O)NC2CCCC2)C(=O)CNC(=O)c2cccs2)c1` as the compound, how does the Potency read?
Its Potency is inconclusive [inhibitor, partial curve].

For `O=C(C1=C[C@@H](c2ccccc2)C[C@@H](OCc2ccc(CO)cc2)O1)N1CCCCCCC1`, which Potency is on record?
The Potency was inconclusive [inhibitor, partial curve, poor fit].

With `Cc1ccc(NC2CCCN(C(=O)c3ccc(F)cc3)C2)cc1C` (stereo not given) as the compound, how does the Potency read?
The Potency was inconclusive [inhibitor, single point].

For `C=CCOn1c(=O)c(-c2cccs2)[n+]([O-])c2ccccc21`, which Potency is on record?
The Potency was active: 23.1 µM.

With `CC1(Cc2ccc(C(F)(F)F)o2)C(=O)Nc2ccc(-c3cccc(C(F)(F)F)c3)cc21` (stereo not given) as the compound, how does the Potency read?
The Potency was active: 14.6 µM.

Which Potency does the source give for `CCOc1ccc(NC(=O)CCC(=O)N2CC(C)Oc3ccc(C)cc32)cc1` (stereo not given) here?
Its Potency is active: 25.9 µM.

Which Potency does the source give for `CCOc1cc(/C=C2/SC(=S)N(Cc3ccccc3)C2=O)ccc1O` here?
Its Potency is inconclusive [inhibitor, single point].

Which activity change, negative = growth inhibition does the source give for `O=S(=O)(c1ccc(Br)s1)N1CCN(Cc2ccc3c(c2)OCO3)CC1` here?
The activity change, negative = growth inhibition was inconclusive: -30.4% [inhibitor].

With `Cc1nc(CNS(=O)(=O)c2ccc(F)cc2)cs1` as the compound, how does the Potency read?
Its Potency is “inactive”.

With `O=c1oc2ccccc2c(NC2CCCCC2)c1NS(=O)(=O)c1ccc(Br)cc1` as the compound, how does the Potency read?
The Potency was inconclusive [inhibitor, single point].

For `CC(C(=O)O)N1C(=O)/C(=C/C=C/c2ccco2)SC1=S` (stereo not given), which Potency is on record?
Its Potency is inconclusive [inhibitor, single point].

Which Potency does the source give for `COc1ccc2[nH]c3c(=O)n(Cc4ccc(C(=O)N5CCCC5)cc4)c(=S)[nH]c3c2c1` here?
The Potency was inconclusive [inhibitor, single point].

Which Potency does the source give for `O=C(CN1C2CCCC1CC(NC(=O)c1ccco1)C2)Nc1ccccc1` (stereo not given) here?
Its Potency is inconclusive [inhibitor, single point].

For `COc1cccc(-n2c(SCC(=O)c3c[nH]c4ccccc34)nc3ccccc3c2=O)c1`, which Potency is on record?
Its Potency is active: 20.6 µM.

With `Fc1ccc(/C=C\c2nccc3c2[nH]c2ccccc23)cc1` as the compound, how does the Potency read?
Its Potency is inconclusive [inhibitor, single point].

With `COc1ccc(C(=O)NNC(=O)C(=O)NCc2ccccc2)cc1` as the compound, how does the Potency read?
The Potency was “inactive”.

For `CCCCSc1nc(C)cc(SCC(=O)N/N=C/c2ccccc2)n1`, which Potency is on record?
The Potency was inconclusive [inhibitor, single point].

Which Potency does the source give for `CCCn1nc(C(=O)Nc2ccc3nc(C)sc3c2)c2ccccc2c1=O` here?
Its Potency is inconclusive [inhibitor, single point].

With `COc1ccccc1NS(=O)(=O)c1cccc(C(=O)N2CCCCCC2)c1` as the compound, how does the Potency read?
The Potency was inconclusive [inhibitor, single point].

With `O=C1Nc2c(Br)cccc2C1=O` as the compound, how does the Potency read?
Its Potency is active: 8.2 µM.

With `Cc1cccc(-c2onc3ccc(C(=O)/C=C/N(C)C)cc23)c1` as the compound, how does the Potency read?
Its Potency is inconclusive [inhibitor, single point].

For `Cn1c(Cc2ccccc2)nnc1SCC(=O)Nc1ccc(N2CCOCC2)cc1`, which Potency is on record?
Its Potency is “inactive”.
